In publication PMC11002309, “Cancer-associated polybromo-1 bromodomain 4 missense variants variably impact bromodomain ligand binding and cell growth suppression” (The Journal of Biological Chemistry, 2024):

Tests used:
Assay in all cases: AlphaScreen or HTRF; initial screen: His6-PBRM1-BD4 protein at 0.1, 1 and 10 μM with 50 nM biotinylated H3K14ac(1–20) peptide; streptavidin donor and nickel-chelate acceptor beads; 1× AlphaLISA Epigenetics buffer, 0.05% Tween 20, 2 μM TCEP; room temperature; n = 3
Settings in all cases: both partners purified
PBRM1-BD4 R576L = target: T1, PBRM1-BD4 R576L (human, UniProt Q86U86-5 496-637, R576L)
T1 construct: polybromo-1 (PBRM1), fourth bromodomain (BD4) construct, aa 496-637, cancer-associated missense variant; source: E. coli BL21(DE3), purified (Ni-NTA, gel filtration)

PBRM1-BD4 M586I = target: T2, PBRM1-BD4 M586I (human, UniProt Q86U86-5 496-637, M586I)
T2 construct: polybromo-1 (PBRM1), fourth bromodomain (BD4) construct, aa 496-637, cancer-associated missense variant; source: E. coli BL21(DE3), purified (Ni-NTA, gel filtration)

PBRM1-BD4 N528I = target: T3, PBRM1-BD4 N528I (human, UniProt Q86U86-5 496-637, N528I)
T3 construct: polybromo-1 (PBRM1), fourth bromodomain (BD4) construct, aa 496-637, cancer-associated missense variant; source: E. coli BL21(DE3), purified (Ni-NTA, gel filtration)

[1] = target: T4, PBRM1-BD4 WT (fourth bromodomain of polybromo-1, aa 496–637) (human, UniProt Q86U86-5 496-637)
T4 construct: polybromo-1 (PBRM1), fourth bromodomain (BD4) construct, aa 496-637; Construct in the pNIC-CTHF vector; source: E. coli BL21(DE3), purified (Ni-NTA, gel filtration)

PBRM1-BD4 P556S = target: T5, PBRM1-BD4 P556S (human, UniProt Q86U86-5 496-637, P556S)
T5 construct: polybromo-1 (PBRM1), fourth bromodomain (BD4) construct, aa 496-637, cancer-associated missense variant; source: E. coli BL21(DE3), purified (Ni-NTA, gel filtration)

Measured: binding result

PBRM1-BD4 P556S, sequence (Q86U86 496-637 P556S): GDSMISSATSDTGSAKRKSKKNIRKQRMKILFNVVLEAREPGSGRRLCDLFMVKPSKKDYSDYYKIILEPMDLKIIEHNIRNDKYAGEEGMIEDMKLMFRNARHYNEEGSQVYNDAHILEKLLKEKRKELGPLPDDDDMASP
PBRM1-BD4 N528I, sequence (Q86U86 496-637 N528I): as the sequence (Q86U86 496-637 P556S) above, with N33I, S61P counted along it
PBRM1-BD4 R576L, sequence (Q86U86 496-637 R576L): as the sequence (Q86U86 496-637 P556S) above, with S61P, R81L counted along it
PBRM1-BD4 M586I, sequence (Q86U86 496-637 M586I): as the sequence (Q86U86 496-637 P556S) above, with S61P, M91I counted along it

B1: biotinylated histone H3K14ac(1–20) peptide (peptide)
peptide: not shown
modifications: acetyl-lysine at K14; biotin on the added C-terminal lysine; C-terminal amide (CONH2)
notes: histone H3, residues 1-20; added C-terminal lysine that carries the biotin; also called H3K14ac peptide; Kac peptide; source: synthetic peptide, bought: Peptide 2.0
binds: all assays above
